# Test results taken from article PMC12820563, “FoxP3 forms a head-to-head dimer in vivo and stabilizes its multimerization on adjacent microsatellites”.
# The list shows a part of the results.
# Molecular target: T1, MBP-FoxP1dN (Mus musculus, UniProt P58462 326-579)
# T1 sequence: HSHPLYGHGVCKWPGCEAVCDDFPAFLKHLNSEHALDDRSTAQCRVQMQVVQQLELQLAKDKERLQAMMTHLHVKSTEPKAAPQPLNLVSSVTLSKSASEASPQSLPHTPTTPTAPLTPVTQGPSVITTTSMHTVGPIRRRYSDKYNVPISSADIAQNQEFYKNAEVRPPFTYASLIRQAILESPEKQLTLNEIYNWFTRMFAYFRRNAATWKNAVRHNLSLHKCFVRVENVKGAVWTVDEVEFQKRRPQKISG
# Assay: PD-seq (MBP pull-down with sequencing); 20 mM Tris-HCl pH 7.5, 100 mM NaCl, 1.5 mM MgCl2, 0.4 uM protein, 0.1 uM dsDNA library, 30 min, room temperature, amylose pull-down; high values mean tight binding
# Settings: protein: recombinant; tags: His6-MBP; chain copies: 2; dsDNA, one strand shown
# In short: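 The N-terminus-lacking fragment of mouse FoxP3 or FoxP1 carried a His6-MBP tag and was expressed in E. coli. At 0.4 µM it was incubated with 0.1 µM Klenow-filled degenerate double-stranded DNA library for 30 min at room temperature in Tris pH 7.5 buffer with NaCl and MgCl2, and complexes were caught on amylose resin, washed three times, released with proteinase K, PCR-barcoded and Illumina-sequenced. Binding is reads-per-million enrichment of pull-down over input with replicates pooled.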
row,Sequence,binding signal
1,GATGATTGTTCTCCCAGCTGATGAATTTTTTTGTTCGAGTAAACAAATTTTCCTAATCTTTCTGTTCAAGCGCCATCTAC,0.971 RPM ratio (pull-down/input)
2,GATGATTGTTCTCCCAGCTGATGAATTCGGTCAATCGAGTAAACAAATTTTCCTAATCTTTCTGTTCAAGCGCCATCTAC,1.02 RPM ratio (pull-down/input)
3,GATGATTGTTCTCCCAGCTGATGAATTCTGACGATCGAGTAAACAAATTTTCCTAATCTTTCTGTTCAAGCGCCATCTAC,0.853 RPM ratio (pull-down/input)
4,GATGATTGTTCTCCCAGCTGATGAATTGACCATATCGAGTAAACAAATTTTCCTAATCTTTCTGTTCAAGCGCCATCTAC,1.03 RPM ratio (pull-down/input)
5,GATGATTGTTCTCCCAGCTGATGAATTGGAAATGTCGAGTAAACAAATTTTCCTAATCTTTCTGTTCAAGCGCCATCTAC,0.907 RPM ratio (pull-down/input)
6,GATGATTGTTCTCCCAGCTGATGAATTCGTTTCCTCGAGTAAACAAATTTTCCTAATCTTTCTGTTCAAGCGCCATCTAC,0.835 RPM ratio (pull-down/input)
7,GATGATTGTTCTCCCAGCTGATGAATTGACAGTGTCGAGTAAACAAATTTTCCTAATCTTTCTGTTCAAGCGCCATCTAC,1.05 RPM ratio (pull-down/input)
8,GATGATTGTTCTCCCAGCTGATGAATTCGCTTTATCGAGTAAACAAATTTTCCTAATCTTTCTGTTCAAGCGCCATCTAC,0.948 RPM ratio (pull-down/input)
9,GATGATTGTTCTCCCAGCTGATGAATTTCGGAGTTCGAGTAAACAAATTTTCCTAATCTTTCTGTTCAAGCGCCATCTAC,0.821 RPM ratio (pull-down/input)
10,GATGATTGTTCTCCCAGCTGATGAATTCCGTAACTCGAGTAAACAAATTTTCCTAATCTTTCTGTTCAAGCGCCATCTAC,0.881 RPM ratio (pull-down/input)
11,GATGATTGTTCTCCCAGCTGATGAATTGAAGCGCTCGAGTAAACAAATTTTCCTAATCTTTCTGTTCAAGCGCCATCTAC,0.842 RPM ratio (pull-down/input)
12,GATGATTGTTCTCCCAGCTGATGAATTCATCCAATCGAGTAAACAAATTTTCCTAATCTTTCTGTTCAAGCGCCATCTAC,0.987 RPM ratio (pull-down/input)
13,GATGATTGTTCTCCCAGCTGATGAATTACAACTATCGAGTAAACAAATTTTCCTAATCTTTCTGTTCAAGCGCCATCTAC,1.34 RPM ratio (pull-down/input)
14,GATGATTGTTCTCCCAGCTGATGAATTAGTTCAATCGAGTAAACAAATTTTCCTAATCTTTCTGTTCAAGCGCCATCTAC,0.952 RPM ratio (pull-down/input)
15,GATGATTGTTCTCCCAGCTGATGAATTCAGTCGGTCGAGTAAACAAATTTTCCTAATCTTTCTGTTCAAGCGCCATCTAC,0.885 RPM ratio (pull-down/input)
16,GATGATTGTTCTCCCAGCTGATGAATTTGCTGTGTCGAGTAAACAAATTTTCCTAATCTTTCTGTTCAAGCGCCATCTAC,1.14 RPM ratio (pull-down/input)

row,Sequence,binding signal
1,GATGATTGTTCTCCCAGCTGATGAATTCACGGTCTCGAGTAAACAAATTTTCCTAATCTTTCTGTTCAAGCGCCATCTAC,0.809 RPM ratio (pull-down/input)
2,GATGATTGTTCTCCCAGCTGATGAATTAATATGTTCGAGTAAACAAATTTTCCTAATCTTTCTGTTCAAGCGCCATCTAC,1.14 RPM ratio (pull-down/input)
3,GATGATTGTTCTCCCAGCTGATGAATTCGTGAGGTCGAGTAAACAAATTTTCCTAATCTTTCTGTTCAAGCGCCATCTAC,0.801 RPM ratio (pull-down/input)
4,GATGATTGTTCTCCCAGCTGATGAATTCTTTGATTCGAGTAAACAAATTTTCCTAATCTTTCTGTTCAAGCGCCATCTAC,0.885 RPM ratio (pull-down/input)
5,GATGATTGTTCTCCCAGCTGATGAATTAGGCAGCTCGAGTAAACAAATTTTCCTAATCTTTCTGTTCAAGCGCCATCTAC,0.787 RPM ratio (pull-down/input)
6,GATGATTGTTCTCCCAGCTGATGAATTGTTTCTCTCGAGTAAACAAATTTTCCTAATCTTTCTGTTCAAGCGCCATCTAC,1.33 RPM ratio (pull-down/input)
7,GATGATTGTTCTCCCAGCTGATGAATTATGCAATTCGAGTAAACAAATTTTCCTAATCTTTCTGTTCAAGCGCCATCTAC,1.22 RPM ratio (pull-down/input)
8,GATGATTGTTCTCCCAGCTGATGAATTCAAGATCTCGAGTAAACAAATTTTCCTAATCTTTCTGTTCAAGCGCCATCTAC,0.814 RPM ratio (pull-down/input)
9,GATGATTGTTCTCCCAGCTGATGAATTATAGCGGTCGAGTAAACAAATTTTCCTAATCTTTCTGTTCAAGCGCCATCTAC,0.846 RPM ratio (pull-down/input)
10,GATGATTGTTCTCCCAGCTGATGAATTGACAGCATCGAGTAAACAAATTTTCCTAATCTTTCTGTTCAAGCGCCATCTAC,1.44 RPM ratio (pull-down/input)
11,GATGATTGTTCTCCCAGCTGATGAATTTATTTGGTCGAGTAAACAAATTTTCCTAATCTTTCTGTTCAAGCGCCATCTAC,1.59 RPM ratio (pull-down/input)
12,GATGATTGTTCTCCCAGCTGATGAATTGGTTATTTCGAGTAAACAAATTTTCCTAATCTTTCTGTTCAAGCGCCATCTAC,1.13 RPM ratio (pull-down/input)
13,GATGATTGTTCTCCCAGCTGATGAATTGAGCTTCTCGAGTAAACAAATTTTCCTAATCTTTCTGTTCAAGCGCCATCTAC,0.815 RPM ratio (pull-down/input)
14,GATGATTGTTCTCCCAGCTGATGAATTCCCTGCGTCGAGTAAACAAATTTTCCTAATCTTTCTGTTCAAGCGCCATCTAC,0.907 RPM ratio (pull-down/input)
15,GATGATTGTTCTCCCAGCTGATGAATTGAGCTACTCGAGTAAACAAATTTTCCTAATCTTTCTGTTCAAGCGCCATCTAC,0.853 RPM ratio (pull-down/input)
